# Reference: PubChem BioAssay AID1347120 (National Center for Advancing Translational Sciences (NCATS), 2019)
# In all, about 390,000 compounds went through this assay and about 930 (0.24%) were called active. The inconclusive results got no clear call from the source; some entries with a clear call stand among them for comparison. Calls follow the shape of the dose curve; as a rule, active = well fitted activation curve with a large enough effect; inconclusive = small, poorly fitted or top-dose-only effect; inactive = no such curve, though single readings can be large or run the other way. Where the call is inconclusive, the potency comes from a doubtful curve fit.
# Test: qHTS for Suppressors of FUS Proteinopathy: Primary screen using FUS-linked yeast assay; also: nearly all actives have a fitted effect of over 55% in size;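 as to growth rescue (activation): plate controls were DMSO vehicle for no effect and reference control for full effect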
# Conditions: S. cerevisiae FUS-expressing, OD600, 24 h; Potency: growth rescue; growth rescue (activation): at 76.6 µM (top of the series)
# Summary of the method: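 Read-out: OD at 600 nm after 24hr at 30C, reporting rescue of FUS-induced yeast toxicity. Cells at OD 0.005 in galactose (2%) minimal medium; compounds tested in a dilution series; CP55940 titration from 92uM final as control.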
# Potency is read from the fitted curve at half-maximal effect; tags tell the direction and shape of the fitted curve.
SMILES,Potency,growth rescue (activation)
COc1ccc(CNc2oc(COc3ccccc3)nc2C#N)cc1,"inconclusive: 50.1 µM [activator, partial curve, poor fit]",–
O=C(C1CCCN1S(=O)(=O)c1ccccc1[N+](=O)[O-])N1CCN(c2ccccc2)CC1 (stereo not drawn),inactive,–
CCOC(=O)c1ccc(NC(=O)c2c(NCc3cccc(OC)c3)sc3c2CCC3)cc1,"inconclusive: 39.8 µM [activator, single point]",–
O=C(CCNC(=O)C1CCN(S(=O)(=O)c2ccccc2)CC1)Nc1cccc(C(F)(F)F)c1,"inconclusive: 25.1 µM [activator, single point]",–
COc1ccc(N2CCN(C(=O)c3cn(C4CCCCC4)c(=O)c4c3c3ccccc3n4C)CC2)cc1,"inconclusive: 17.8 µM [activator, partial curve, poor fit]",–
CCOC(=O)C1CCN(C(c2cc3ccc(C)c(C)c3[nH]c2=O)c2nnnn2C2CCCCC2)CC1 (stereo not drawn),active: 35.5 µM,–
CCCCNC(=S)N1CCN(C(c2ccccc2)c2ccccc2)CC1,inactive,–
COC(=O)CSCc1nc(-c2ccc(C(=O)OC)cc2)oc1C,inactive,–
Cc1cc(C)c(S(=O)(=O)Nc2ccc(-c3ccc(N4CCCCC4)nn3)cc2)c(C)c1,"inconclusive: 50.1 µM [activator, single point]",–
O=C(c1ccccc1F)N1CCN(c2ccc([N+](=O)[O-])cc2-n2cccc2)CC1,"inconclusive: 17.8 µM [activator, partial curve]",–
Cc1noc(NS(=O)(=O)c2ccc(NC(=O)CSc3nc4c(cc3C#N)CCC4)cc2)c1C,"inconclusive: 35.5 µM [activator, single point]",–
Cc1ccc(-c2csc(N3CCN(c4cc5c(cc4Cl)nc(-c4ccncc4)n5CCN4CCCCC4)CC3)n2)cc1,"inconclusive: 31.6 µM [activator, single point]",–
Nc1ccc(N(CCO)CCO)cc1,"inconclusive: 44.7 µM [activator, partial curve, poor fit]",–
COc1cc2c(cc1OC)C(COc1ccccc1OC)N(C(=O)c1ccc(S(=O)(=O)N3CCCC3)cc1)CC2 (stereo not drawn),"inconclusive: 35.5 µM [activator, partial curve, poor fit]",–
Cc1ccc2c(c1)N(CCC(=O)NCC1COc3ccccc3O1)C(=O)CO2 (stereo not drawn),"inconclusive: 22.4 µM [activator, partial curve, poor fit]",–
Cc1ccc(C(=O)N/N=C/c2cccc(OC(=O)/C=C/c3ccco3)c2)cn1,inactive,–
CCOC(=O)C1=C(C)N=c2sc(=Cc3ccc(OCC(=O)O)cc3)c(=O)n2C1c1ccc(Cl)cc1 (stereo not drawn),"inconclusive: 50.1 µM [activator, single point]",–
CCN(CC)S(=O)(=O)c1ccc(N2CCOCC2)c(NC(=O)c2cccc3c(=O)c(C)c(-c4ccccc4)oc23)c1,"inconclusive: 15.8 µM [activator, partial curve, poor fit]",–
C#CCOCCOCCOCCNc1nc(N2CCN(C(=O)CCCCCCCCCCNC(=O)[C@H](CCCCN)n3cc(CCO)nn3)CC2)nc(N2CCN(C(=O)CCCCCCCCCCNC(=O)[C@H](CCCCN)n3cc(CCCC(=O)O)nn3)CC2)n1,"inconclusive: 11.2 µM [activator, partial curve, poor fit]",–
Cc1ccc(N(C)S(=O)(=O)c2ccc(-c3cnc(C4CC4)o3)cc2)cc1,"inconclusive: 28.2 µM [activator, partial curve, poor fit]",–
C[C@@]12C(=O)Nc3ccc(Br)cc3C(=O)N1[C@H]1c3cc(Br)ccc3OC[C@@H]1[C@@H]2c1ccccc1,inactive,–

SMILES,Potency,growth rescue (activation)
CCOC(=O)c1cc(-c2ccccc2)n(-c2cccc(C(=O)NC(C)CC)c2)c1C (stereo not drawn),inactive,–
COc1cc(C(=O)NC(=S)Nc2ccccc2N2CCCC2)cc(OC)c1OC,"inconclusive: 8.91 µM [activator, single point]",–
CCN(CC)CCNC(=O)c1sc2nc(C)cc(C)c2c1-n1cccc1,inactive,–
CN1CC=C2C(C#N)=C(N)C(C#N)(C#N)[C@H](c3cccs3)[C@H]2C1,inactive,–
COc1ccc(-n2c(Cc3ccccc3)nnc2SCc2nc(-c3ccccc3C)no2)cc1,"inconclusive: 25.1 µM [activator, partial curve]",–
C=CCNC(=O)c1onc(CSc2cc(C)cc(C)c2)c1C(=O)NCC=C,"inconclusive: 50.1 µM [activator, single point]",–
CN(C(=O)CSc1cn(CC(=O)N2CCCC2)c2ccccc12)c1ccccc1,inactive,–
Clc1ccccc1-c1nnc2sc(-c3ccccn3)nn12,–,inconclusive: 79.4% [activator]
Cc1ccc(CNCc2ccc3c(c2)OCO3)cc1,inactive,–
O=C(CSc1nc2ccccc2c(=O)n1Cc1ccc(C(=O)NC2CC2)cc1)NCc1ccco1,"inconclusive: 44.7 µM [activator, partial curve, poor fit]",–
Cc1cc(C)cc(NC(c2cccc(Cl)c2)c2nnc(-c3ccccc3)o2)c1 (stereo not drawn),"inconclusive: 31.6 µM [activator, single point]",–
Cc1ccc(C)c(N2CCN(C(=O)Cc3cn(C)c4ccccc34)CC2)c1,"inconclusive: 50.1 µM [activator, single point]",–
NC(=O)[C@H]1CC2(CC(c3cccc(NC(=O)COc4ccc(Cl)cc4)c3)=NO2)CN1C(=O)c1ccc(Cl)cc1 (stereo partly drawn),"inconclusive: 17.8 µM [activator, partial curve, poor fit]",–
COc1ccc(CNC(=O)c2cnn(-c3ccc(OC)cc3)c2C2CCN(C(=O)OC(C)(C)C)CC2)cc1,"inconclusive: 31.6 µM [activator, partial curve, poor fit]",–
CCc1cc(=O)n2c([nH]c3ccccc32)c1C#N,inactive,–
CCN1C(=O)[C@@H]2[C@@H](c3ccc(SC4CCCCC4)c(OC)c3)N3CCCC[C@@]3(C(=O)OC)[C@@H]2C1=O,active: 5.01 µM,–
CC1N=C2c3ccccc3N=C(SCC(=O)NCc3ccc(Cl)cc3)N2C1=O (stereo not drawn),inactive,–
CC1(C(=O)Nc2ccccc2F)CCN1C(=O)Cc1ccc(-c2ccccc2)cc1 (stereo not drawn),"inconclusive: 31.6 µM [activator, single point]",–
Cc1cc2cc(CN(Cc3ccc4c(c3)OCO4)C(=O)c3ccco3)c(=O)[nH]c2cc1C,"inconclusive: 28.2 µM [activator, single point]",–
Cc1ccc(S(=O)(=O)N2CCC(NC(=O)c3cccc(F)c3)CC2)cc1,inactive,–
CSC1CCCCC1(O)CSc1nc2c(cc1C#N)CCCC2 (stereo not drawn),inactive,–

SMILES,Potency,growth rescue (activation)
O=C(NCC1CCCCC1)C12CN(Cc3ccccc3)CC1C(c1cccc([N+](=O)[O-])c1)=NO2 (stereo not drawn),"inconclusive: 31.6 µM [activator, single point]",–
CCCCCn1c(SCC2CCCO2)nc2cc(C(=O)N3CCC(C(N)=O)CC3)ccc2c1=O (stereo not drawn),"inconclusive: 8.91 µM [activator, partial curve, poor fit]",–
C#CCSc1nccc(-c2nn(-c3ccc(C)cc3)ccc2=O)n1,active: 35.5 µM,–
CCOc1ccc(NC(=O)c2ccc3c(c2)N(Cc2ccc(F)cc2)C(=O)CS3=O)cc1 (stereo not drawn),"inconclusive: 14.1 µM [activator, partial curve]",–
Cc1ccc(C(=O)/C=C/c2ccc3ncccc3c2)cc1,inactive,–
Cc1nc2ccccc2n1CC(O)Cn1c2ccccc2c2ccccc21 (stereo not drawn),"inconclusive: 50.1 µM [activator, single point]",–
COc1ccc(CNC(=O)c2cc(-c3ccccc3)c(N3CCOCC3)s2)cc1OC,"inconclusive: 28.2 µM [activator, partial curve, poor fit]",–
CC1(C(=O)NC2CCCCCC2)CCN1C(=O)Cc1ccc(-c2ccccc2)cc1 (stereo not drawn),"inconclusive: 25.1 µM [activator, single point]",–
COc1ccc(OCC(=O)O/N=C(\N)c2ccc(OC)cc2)cc1,inactive,–
CC(Oc1ccc(Br)cc1)C(=O)Nc1nc(-c2ccccn2)cs1 (stereo not drawn),"inconclusive: 28.2 µM [activator, single point]",–
CCOC(=O)C1CCCN(C(=O)c2cc3c(Cl)nc4ccccc4c3s2)C1 (stereo not drawn),"inconclusive: 28.2 µM [activator, single point]",–
COc1cc2c(cc1OC)CN(C(=O)c1ccc3[nH]c(C)c(C)c3c1)CC2,"inconclusive: 28.2 µM [activator, single point]",–
O=C(O)CSc1ccc2ccccc2n1,inactive,–
CCOc1ccc(N(CC(=O)Nc2c(C)n(C)n(-c3ccccc3)c2=O)S(=O)(=O)c2ccc(C(C)(C)C)cc2)cc1,"inconclusive: 11.2 µM [activator, partial curve, poor fit]",–
O=C(CC(=O)N/N=C/c1ccc(C(=O)O)cc1)NCCc1ccccc1,inactive,–
CCCNC(=O)C1(C)CCN(CCOc2ccc(Cl)cc2)C1 (stereo not drawn),inactive,–
COC(=O)[C@]12CCCCC=C1N(Cc1ccc(Cl)cc1Cl)C(=O)[C@H](CC(=O)N1CCCC1)C2,"inconclusive: 31.6 µM [activator, single point]",–
Cc1ccc(C(=O)Nc2ccc(C(=O)N/N=C/c3ccc(C)o3)cc2)cc1,"inconclusive: 12.6 µM [activator, partial curve]",–
COc1ccc(CCNC(=O)c2cc(-c3ccccc3)c(N3CCOCC3)s2)c(OC)c1OC,"inconclusive: 50.1 µM [activator, single point]",–
CC(NC(=O)c1ccccc1Br)C1CC2CCC1C2 (stereo not drawn),inactive,–
CCN1C(=O)[C@H]2[C@@H](c3ccc(-c4ccc5c(c4)OCO5)c(OC)c3)N[C@@](C)(C(=O)OC)[C@H]2C1=O,"inconclusive: 22.4 µM [activator, partial curve]",–
